Values marked as one replicate rest on one cluster of the flow cell; about a third of the high ones do not repeat.

This passage reports switch fluorescence ratio results from the supplement of paper PMC10126150.
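Also: ATP exposure 15 min at 22 °C before imaging.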

This series deals with ATP. Description: switch fluorescence ratio, 500 uM ATP over buffer (Cy3 cluster intensity, sum of 5 cycles each) (fold (ratio)); higher = stronger signal-on switching upon ATP binding; sequences stand for … in TCGTCGGCAGCGTCAGATGTGTATAAGAGACAGTTTTTTTTTTTTTTTTTTTTTTTTT…TC. The conditions noted are these: aptamer strand: ATP DNA aptamer (quencher-CACCTGGGGGAGTATTGCGGAGGAAGG + anchor), 100 nM annealed; ATP concentration: 500 uM; one replicate. An outline of the steps: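 Values give the fluorescence ratio for each switch-domain sequence, averaged from per-cluster ratios of summed target-cycle to summed buffer-cycle Cy3 intensity. The Cy3-labelled switching-strand clusters sat on a modified Illumina MiSeq flow-cell, were annealed to 100 nM quencher-labelled ATP aptamer, and were imaged in selection buffer, then after 15 min with 500 uM ATP at 22 °C. Five cycles ran with NaOH stripping and re-annealing between them, and clusters outside 100-1000 RFU were excluded.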
On to ACTCATCGTT, for which the switch fluorescence ratio came to 1.06.
Regarding TTAAGGTGCT, the switch fluorescence ratio was 1.16.
On to AATAATACCT, for which the switch fluorescence ratio turned out to be 1.48.
The result for GTAGGGAGTA reads 1; that for TGCAGTGACG, 0.989.
Take ATGACATTAG: the switch fluorescence ratio was found to be 1.03.
For the sequence GAAGAGCCGA, the switch fluorescence ratio was 0.966.
As for CGATGAATTA, the switch fluorescence ratio was 1.04.
Take TCGGACTTAG: the switch fluorescence ratio stood at 0.989.
With GCGGCCTGGC, the switch fluorescence ratio was determined as 0.951.
Regarding GCTGCTTTGA, the switch fluorescence ratio came out at 1.02.
On to ATATGTGTAG, for which the switch fluorescence ratio turned out to be 0.99.
In the case of TGACTAGATA it was 0.994; in that of GGGAGACT, 1.02.
Turning to TCAGTTGAAT, the switch fluorescence ratio was found to be 0.986.
As to TTGGTTGCTC, the switch fluorescence ratio stood at 0.978.
For CTCAGAAAGA, the switch fluorescence ratio stood at 1.03.
Take CCAGGACAGG: the switch fluorescence ratio was determined as 1.03.
Take CGACACATTC: the switch fluorescence ratio is 3.22.
For CCAAGTGAGC, the switch fluorescence ratio was found to be 1.05.
For TCGGCAATTG, the switch fluorescence ratio is 1.01.
With TTCCGTCTCT, the switch fluorescence ratio is 1.01.
With AATCGGAGTG, the switch fluorescence ratio came to 0.996.
For TACAACCTGA, the switch fluorescence ratio came to 1.38.
On to GCACTTCCAA, for which the switch fluorescence ratio is 1.14.
As to CCGGTGCCCG, the switch fluorescence ratio worked out at 1.15.
The result for AGATAGGAAT reads 0.981; that for CCATGCGGCT, 1.02; that for CTTATTGAGG, 0.971.
In the case of GTGATCTACT it was 1.02; in that of GGTTAGATTT, 0.974.
Regarding CTAACCAAGA, the switch fluorescence ratio worked out at 1.01.
Consider AGGTATGATC, for which the switch fluorescence ratio was found to be 1.01.
In the case of AAGGGACTGT, the switch fluorescence ratio was found to be 1.07.
Take TCAACCACCA: the switch fluorescence ratio was 1.09.
The result for AAATTTCGTG reads 0.942; that for AGAGAAGGCA, 1.03.
With GGACTTTATC, the switch fluorescence ratio was 0.993.
The result for GAGAGTGTGG reads 0.965; that for TCCAAGCCTA, 1; that for GATCAAGCTT, 0.948.
The result for ACTGAGTCTG reads 1.22; that for ATGCCTGCTG, 1.02; that for TTTGACCATT, 0.968.
On to CCACGTGTCT, for which the switch fluorescence ratio amounted to 0.985.
In the case of CACAGGTGAT it was 2.8; in that of GGTGAGCCAT, 0.967.
Turning to TCCTAGGAGA, the switch fluorescence ratio amounted to 1.02.
On to GTTTTATTCA, for which the switch fluorescence ratio turned out to be 0.945.
AAATGGGGAG: the switch fluorescence ratio was 0.947.
The result for TGTCTGCTGG reads 0.969; that for TTGCCACAGG, 1.39; that for GGGACACCGG, 1.04.
Consider AGGACAGGGA, for which the switch fluorescence ratio was found to be 0.959.
The result for GCCGCTCATT reads 1.02; that for GAGCTACATA, 1.04; that for GCAATATTAA, 1.17.
As to GATTCGAACC, the switch fluorescence ratio came to 1.01.
As for ACCAAGTCTA, the switch fluorescence ratio was determined as 1.01.
The result for TGATTTCAGT reads 0.98; that for TTACGTAGTT, 1.05.
Take CGACTGGAGA: the switch fluorescence ratio stood at 1.05.
Take GCGATTGTAC: the switch fluorescence ratio came out at 1.27.
Regarding ACCGCCTCTT, the switch fluorescence ratio was 1.14.
Take GTACTGGCGT: the switch fluorescence ratio is 1.05.
In the case of AGCGGGATCC it was 1.01.
